Reference: paper PMC9935876, “Structure of the planar cell polarity cadherins Fat4 and Dachsous1” (Nature Communications, 2023)
Where a chain is given by its changes, count along the chain named. In names and notes the source's numbering stands. These are yes or no findings as the source states them, for the method shown. Some results given as binding are weak or reduced against the parent protein; the word gives no strength.

Legend:
[1] = target: T1, Human Fat4(EC1-3) (human) (UniProt Q6V0I7); assay: ITC; MicroCal ITC200; Fat4 construct 30 µM in the sample cell, Dchs1 construct 300 µM as titrant; 20 °C; fitted with one set of sites; two independent experiments; both purified
T1 sequence: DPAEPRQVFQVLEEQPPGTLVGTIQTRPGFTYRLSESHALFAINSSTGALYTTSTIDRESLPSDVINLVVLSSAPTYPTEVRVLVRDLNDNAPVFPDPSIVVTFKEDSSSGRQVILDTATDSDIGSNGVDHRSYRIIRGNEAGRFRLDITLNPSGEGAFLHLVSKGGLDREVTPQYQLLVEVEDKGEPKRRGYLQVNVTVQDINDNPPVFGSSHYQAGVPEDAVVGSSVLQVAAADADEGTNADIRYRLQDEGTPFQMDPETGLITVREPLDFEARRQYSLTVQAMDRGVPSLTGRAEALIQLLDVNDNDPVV

[2] = target: T2, Human Fat4L379R(EC1-4) (human) (UniProt Q6V0I7); assay: as above
T2 sequence: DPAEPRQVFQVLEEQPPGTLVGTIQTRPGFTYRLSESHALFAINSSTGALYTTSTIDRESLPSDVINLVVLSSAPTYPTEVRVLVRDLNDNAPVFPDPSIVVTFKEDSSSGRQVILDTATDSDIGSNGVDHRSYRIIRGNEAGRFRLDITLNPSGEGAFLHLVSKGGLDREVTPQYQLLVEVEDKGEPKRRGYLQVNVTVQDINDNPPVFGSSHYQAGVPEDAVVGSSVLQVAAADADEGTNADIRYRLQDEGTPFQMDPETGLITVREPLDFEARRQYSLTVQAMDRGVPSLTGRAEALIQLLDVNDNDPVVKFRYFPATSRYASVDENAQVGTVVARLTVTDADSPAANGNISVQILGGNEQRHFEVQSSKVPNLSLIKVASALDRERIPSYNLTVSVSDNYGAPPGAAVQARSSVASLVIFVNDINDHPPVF

[3] = target: T1, Human Fat4(EC1-3) (human); assay: SEC; gel filtration of the constructs alone or pre-mixed at a 1:1 molar ratio prior to injection on the column; both purified
[4] = target: Fat4-mCitrine on HEK293 cells (human) (UniProt Q6V0I7); assay: staining of cells with fluorescent streptavidin tetramers, confocal microscopy; biotinylated Dchs1 construct with Streptavidin-AF647 added to HEK293 Fat4-mCitrine cells, 37 °C for 1 h; low-salt HBS + 1 mM CaCl2 + 1% BSA; only the binder purified
[5] = target: Dachsous1-mCherry on HEK293 cells (human) (UniProt Q96JQ0); assay: staining of cells with fluorescent streptavidin tetramers, confocal microscopy; tetramers of Fat4 with Streptavidin-AF488 added to HEK293 Dachsous1-mCherry cells induced with doxycycline (100 ng/mL, 1–2 days); only the binder purified
[6] = target: T1, Human Fat4(EC1-3) (human); assay: condition: 30 µM Fat4 in the cell, 300 µM Dchs1 as titrant; ITC; MicroCal ITC200; Fat4 constructs at 30 µM in the sample cell, Dchs1 constructs at 300 µM as titrants; 20 °C; one set of sites; both purified
[7] = target: T3, human Fat4(EC1–4) L379R (human) (UniProt Q6V0I7); assay: as above
T3 sequence: T2 sequence

[8] = target: T4, Human Fat4(EC1-4) (human) (UniProt Q6V0I7); assay: ITC; MicroCal ITC200; Fat4 construct 30 µM in the sample cell, Dchs1 construct 300 µM as titrant; 20 °C; fitted with one set of sites; two independent experiments; both purified
T4 sequence: T2 sequence with R339L

B1: Human Dchs1(EC1-4) (domain or fragment, UniProt Q96JQ0 43-472)
chain: DPQAGSLDLQIDEEQPAGTLIGDISAGLPAGTAAPLMYFISAQEGSGVGTDLAIDEHSGVVRTARVLDREQRDRYRFTAVTPDGATVEVTVRVADINDHAPAFPQARAALQVPEHTAFGTRYPLEPARDADAGRLGTQGYALSGDGAGETFRLETRPGPDGTPVPELVVTGELDRENRSHYMLQLEAYDGGSPPRRAQALLDVTLLDINDHAPAFNQSRYHAVVSESLAPGSPVLQVFASDADAGVNGAVTYEINRRQSEGDGPFSIDAHTGLLQLERPLDFEQRRVHELVVQARDGGAHPELGSAFVTVHVRDANDNQPSMTVIFLSADGSPQVSEAAPPGQLVARISVSDPDDGDFAHVNVSLEGGEGHFALSTQDSVIYLVCVARRLDREERDAYNLRVTATDSGSPPLRAEAAFVLHVTDVNDNAPAF
B1 was tested, and the binding [1] was “no binding (tested: 300 µM titrant into 30 µM in the cell)”, the binding [2] was “no binding (tested: 300 µM titrant into 30 µM in the cell)” and the binding [3] was “no binding”.

B2: Human Dchs1(EC1-3) (domain or fragment, UniProt Q96JQ0 43-362)
chain: DPQAGSLDLQIDEEQPAGTLIGDISAGLPAGTAAPLMYFISAQEGSGVGTDLAIDEHSGVVRTARVLDREQRDRYRFTAVTPDGATVEVTVRVADINDHAPAFPQARAALQVPEHTAFGTRYPLEPARDADAGRLGTQGYALSGDGAGETFRLETRPGPDGTPVPELVVTGELDRENRSHYMLQLEAYDGGSPPRRAQALLDVTLLDINDHAPAFNQSRYHAVVSESLAPGSPVLQVFASDADAGVNGAVTYEINRRQSEGDGPFSIDAHTGLLQLERPLDFEQRRVHELVVQARDGGAHPELGSAFVTVHVRDANDNQPSM
In the case of B2, the binding [3] is reported as “no binding”.

B3: human Dchs1(EC1–3) used to stain Fat4 cells (domain or fragment, UniProt Q96JQ0 43-362)
chain: B2 chain
For B3, the binding [4] was “binds”.

B4: human Dchs1(EC1–4) tetramers (C-terminally biotinylated, on Streptavidin-AF647) (domain or fragment, UniProt Q96JQ0 43-472)
chain: B1 chain
modifications: biotin, C-terminal (biotin acceptor peptide)
For B4, the binding [4] was “binds”.

B5: human Fat4(EC1–4) tetramers (biotinylated, on Streptavidin-AF488) (domain or fragment, UniProt Q6V0I7 43-475)
chain: T2 sequence with R339L
modifications: biotin, C-terminal (biotin acceptor peptide)
In the case of B5, the binding [5] is reported as “binds”.

B6: human Dchs1(EC1–4) (domain or fragment, UniProt Q96JQ0 43-472)
chain: B1 chain
In the case of B6, the binding [6] is reported as “no binding” and the binding [7] is reported as “no binding”.

B7: human Fat4(EC1–3) tetramers (biotinylated, on Streptavidin-AF488) (domain or fragment, UniProt Q6V0I7 43-353)
chain: T1 sequence
modifications: biotin, C-terminal (biotin acceptor peptide)
In the case of B7, the binding [5] is reported as “no binding”.

B8: recombinant Fat4^L379R tetramers (domain or fragment, UniProt Q6V0I7 43-475)
chain: T2 sequence
modifications: biotin, C-terminal (biotin acceptor peptide)
For B8, the binding [5] was “no binding”.

B9: Human Dchs1(EC1-4) R297A (domain or fragment)
chain: B1 chain with R257A
notes: human Dachsous1 (Dchs1), EC1-EC4, aa43-472, with R297A; also called Dchs1R297A(EC1-4); Dchs1R297A
For B9, the binding [8] was “binds weakly”.
